Laboratory results taken from the supplement of paper PMC12645437, “Orthogonal IMiD-Degron Pairs Induce Selective Protein Degradation in Cells” (ACS Chemical Biology, 2025).
The other results are listed elsewhere or left out.

Biological target: no compound (DMSO)
Assay: log2 fold change of degron read counts, EGFP-low vs EGFP+ sorted cells; higher = lower degron-EGFP level without compound (poor expression or instability)
Details: compound: DMSO control; 18 h
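Also: jurkat cells carrying a lentiviral library of mutant zinc finger degrons fused to EGFP plus mCherry, mCherry+ cells FACS sorted, degron abundance counted by next-generation sequencing.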

Sequence	log2 fold change of degron read counts
FECEQCGAQFTQKGNLLRHIKL	-1.93
FNCDICGASFTQKGNLLRHIKL	-1.02
FFCNICGAYFTQKGNLLRHIKL	0.796
FECNICGAPFTQKGNLLRHIKL	-0.648
FYCDICGAMFTQKGNLLRHIKL	-0.345
LMCPICGFDCTQKGNLLRHIKL	1.04
FFCEICGRIFTQKGNLLRHIKL	-0.314
LKCPICGFVCTQKGNLLRHIKL	0.438
FFCDQCGADFTQKGNLLRHIKL	-1.65
FACPICGHFFTQKGNLLRHIKL	0.36
FTCPICGRHFTQKGNLLRHIKL	-0.198
FDCEICGHYFTQKGNLLRHIKL	0.926
LCCPICGFKCTQKGNLLRHIKL	0.37
FDCEICGRCFTQKGNLLRHIKL	-0.434
